Experimental findings from PMC7819943, “Rice protein-binding microarrays: a tool to detect cis-acting elements near promoter regions in rice” are described below.

The list shows a part of the results.

The test concerns the target T1, OsWOX13 (Oryza sativa, UniProt Q5QMM3 1-267).
T1 sequence: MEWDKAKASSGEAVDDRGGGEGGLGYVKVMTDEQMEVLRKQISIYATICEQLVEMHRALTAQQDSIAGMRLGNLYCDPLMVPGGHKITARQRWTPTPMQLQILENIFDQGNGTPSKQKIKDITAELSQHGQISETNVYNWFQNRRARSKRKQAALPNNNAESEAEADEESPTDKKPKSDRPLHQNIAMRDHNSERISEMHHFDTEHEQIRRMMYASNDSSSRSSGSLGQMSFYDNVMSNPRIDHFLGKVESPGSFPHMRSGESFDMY
Description: protein-binding microarray (RPBM); PBS, 2% BSA, 51.3 ng/ul salmon testes DNA, 50 uM zinc acetate, 200 nM TF, 25 C, 1 h; high values mean tight binding. As to conditions: protein: recombinant; tags: N-terminal polyhistidine and DsRed monomer fusion (pET32a); label: CyDye5-dUTP incorporated in the synthesized complementary strand; 3' TTTTT single-stranded linker to array surface; dsDNA, one strand shown. Summed up:
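Using Ni–NTA, transcription factors fused N-terminally to polyhistidine and DsRed were purified after expression in E. coli BL21-CodonPlus. These were incubated at 200 nM with a blocked, double-stranded custom Agilent array for 1 h at 25 °C in a buffer containing 50 µM zinc acetate, and the array was washed. The binding signal is per-feature fluorescence intensity (arbitrary units) on an Axon 4000B scanner.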
Regarding “GGGAGATAGATCTTTAATCCTGATTGATGATACCAATCGGCGGAGTCACCTAGTGCAG”, the binding signal was 29400 fluorescence intensity (a.u.).
Regarding “AGATACTTAATTAGTGTCTTCTATAAGCAAAGGTCAGGAACGGAGTCACCTAGTGCAG”, the binding signal is 11300 fluorescence intensity (a.u.).
With “GCTTAAATGATTTTCTTTGTTTGGCTAATTGGTACATGTTCGGAGTCACCTAGTGCAG”, the binding signal was 45500 fluorescence intensity (a.u.).
For “TATTGTCACTGCAATTTGATGGAGATTAGGCCGTGAAGTGCGGAGTCACCTAGTGCAG” the value was 3630 fluorescence intensity (a.u.).
For “GCTGATAGAATGTGCAGTTGGTGATTAGTGCGGACCTGGGCGGAGTCACCTAGTGCAG” the value was 47100 fluorescence intensity (a.u.); for “AATTAATGTCATGATGACCAATGTCGTGATGACTTCATATCGGAGTCACCTAGTGCAG”, 4510 fluorescence intensity (a.u.).
For “CTGAATCCAATCATTCGCTTTCTAAAAGGAAGCAGCTCATCGGAGTCACCTAGTGCAG” the value was 3260 fluorescence intensity (a.u.).
Turning to “TTACGTGGACATCTCAATTATAATCTTTGTAAATATAGATCGGAGTCACCTAGTGCAG”, the binding signal was 3390 fluorescence intensity (a.u.).
The result for “TATTGACTATTTTATTATTTGATGTCATTTAAGGTTCTAACGGAGTCACCTAGTGCAG” reads 3180 fluorescence intensity (a.u.); that for “CGTAATTACTTTCCCCATCCATCAACCATAGTAGTCTTCCCGGAGTCACCTAGTGCAG”, 38400 fluorescence intensity (a.u.).
For “ATGTACGGCTAGTATTGATTGATGTCGCCAGGCGTTAGCTCGGAGTCACCTAGTGCAG”, the binding signal was 21800 fluorescence intensity (a.u.).
For “GACGGATTAATTAGGCTTAATAAATTTGTCTCGCAGTTTACGGAGTCACCTAGTGCAG” the value was 19800 fluorescence intensity (a.u.).
For “TCTCAATTATACTAACTGCAAATCCAGATGCCCCAAACAACGGAGTCACCTAGTGCAG” the value was 9220 fluorescence intensity (a.u.); for “GACCTTGATGAGGGAGGGGATGGAGCGGATGCGGCGGCGGCGGAGTCACCTAGTGCAG”, 7830 fluorescence intensity (a.u.).
For the sequence “TTTTAAGAAAATTGAATTAAATGAGTCCATTAGGTATGCACGGAGTCACCTAGTGCAG”, the binding signal was 6370 fluorescence intensity (a.u.).
“TATGATAAATTACATTTGGGAGGTGTAATAGTATTTTGTTCGGAGTCACCTAGTGCAG”: the binding signal is 9260 fluorescence intensity (a.u.).
As for “GTAATTGAATATTTACAATGAAGTCTCGACGGTATTCAATCGGAGTCACCTAGTGCAG”, the binding signal is 24700 fluorescence intensity (a.u.).
For the sequence “GCTAATTAAGTCCATTGCACATAGATCGATATGTGTACACCGGAGTCACCTAGTGCAG”, the binding signal is 27700 fluorescence intensity (a.u.).
In the case of “GCAAATATAAATCATTTATGAGTAAAAGTTTTATTTGTGTCGGAGTCACCTAGTGCAG”, the binding signal is 9490 fluorescence intensity (a.u.).
Regarding “TTATTTGACACAATGCGATTGAATTGGGGTGCAGGAGTATCGGAGTCACCTAGTGCAG”, the binding signal was 6780 fluorescence intensity (a.u.).
As to “TAAATTAACATGCATTAATCCTCTTATTTTAATTTTAAATCGGAGTCACCTAGTGCAG”, the binding signal was 5780 fluorescence intensity (a.u.).
In the case of “GAATTTAATTACCAACTGCAATGGCGTATTCGAGTGATGTCGGAGTCACCTAGTGCAG”, the binding signal was 19900 fluorescence intensity (a.u.).
For “CTATGATTTGATGATGGTGGGACACGCACCAACCAATCAACGGAGTCACCTAGTGCAG” the value was 48800 fluorescence intensity (a.u.).
For “TTAATTGTTTGCCGTCTGCTAATCTTGATTCTTGCACAAACGGAGTCACCTAGTGCAG” the value was 6380 fluorescence intensity (a.u.).
In the case of “ATTAAATTTAAAGTTGATTTTGGGATCTTTTCATGGTAATCGGAGTCACCTAGTGCAG”, the binding signal was 31700 fluorescence intensity (a.u.).
Consider “AGATAGATAGATAGATAGATACATGGTGAAGAAGATTCTACGGAGTCACCTAGTGCAG”, for which the binding signal is 24500 fluorescence intensity (a.u.).
Regarding “GACCTGGTGATTGGTGGCAGCCCGTGCAACAACCTTGCTGCGGAGTCACCTAGTGCAG”, the binding signal was 32000 fluorescence intensity (a.u.).
For “CCTTCATTAATTAATATATGATGTTGGGAGTATATCTTTACGGAGTCACCTAGTGCAG” the value was 21900 fluorescence intensity (a.u.); for “CCTAATCACCTGATTAGTTGAAAATGGTTAAAACCCCGTACGGAGTCACCTAGTGCAG”, 27800 fluorescence intensity (a.u.).
For “GGGCTAAAATTTTATTTACTCTACTCCCTCCATATTCCCTCGGAGTCACCTAGTGCAG” the value was 3500 fluorescence intensity (a.u.); for “ATGAAATTTACTCCATATATGTAATTACCTACAAAGCAGTCGGAGTCACCTAGTGCAG”, 7630 fluorescence intensity (a.u.).
The result for “AATAATTGTCACCAAGAGTCCAAGACCAAGTGGGCATCAACGGAGTCACCTAGTGCAG” reads 7460 fluorescence intensity (a.u.); that for “AACCAATCACGTCGCAGATAAGGCCTGACAGGTGTGCCCCCGGAGTCACCTAGTGCAG”, 32700 fluorescence intensity (a.u.).
“CTAACGAACCAATCAATCACCCGTGTGCGCTTATCGGGTGCGGAGTCACCTAGTGCAG”: the binding signal is 28400 fluorescence intensity (a.u.).
For “CGTTTAATTATTTTAATTCGTATCAAATATCCGATGTGACCGGAGTCACCTAGTGCAG” the value was 25500 fluorescence intensity (a.u.).
The result for “CATCAATTTTAATAATCAATAATCATCCAAACATTAGTGACGGAGTCACCTAGTGCAG” reads 13100 fluorescence intensity (a.u.).
On to “CAAATTTGGTGGCCCAGTCATTGCAATCATGATGAGAGTCCGGAGTCACCTAGTGCAG”, for which the binding signal is 7840 fluorescence intensity (a.u.).
For “AACTTAAAATTCCAATCACAATTGTTTCTCAAATGTTTGGCGGAGTCACCTAGTGCAG” the value was 29500 fluorescence intensity (a.u.); for “TCTTCTGTGATTTGCTCATTTCGTTCCCCAAACAGGGCGCCGGAGTCACCTAGTGCAG”, 23700 fluorescence intensity (a.u.).
The result for “TCTTCATGCGTTAATTATTAACTGAAACTTTGTTGTGCTACGGAGTCACCTAGTGCAG” reads 14600 fluorescence intensity (a.u.); that for “CCCAATTGTTTGTCATGTAATTTGAGTCCACATCATCACACGGAGTCACCTAGTGCAG”, 12000 fluorescence intensity (a.u.); that for “ATTACGCCATGATTTGACAATGTGATGTTACAGTAAACATCGGAGTCACCTAGTGCAG”, 7670 fluorescence intensity (a.u.).
